# Results taken from article PMC12820563, “FoxP3 forms a head-to-head dimer in vivo and stabilizes its multimerization on adjacent microsatellites”.
# This is one part of the list.
# Target: T1, MBP-FoxP1dN (Mus musculus, UniProt P58462 326-579)
# T1 sequence: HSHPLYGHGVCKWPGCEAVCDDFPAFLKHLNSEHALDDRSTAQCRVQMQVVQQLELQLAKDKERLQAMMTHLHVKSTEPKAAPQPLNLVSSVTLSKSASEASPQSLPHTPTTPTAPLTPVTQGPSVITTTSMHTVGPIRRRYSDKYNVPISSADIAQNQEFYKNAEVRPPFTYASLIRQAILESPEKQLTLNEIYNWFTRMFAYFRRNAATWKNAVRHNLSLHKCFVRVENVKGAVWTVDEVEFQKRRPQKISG
# Assay: PD-seq (MBP pull-down with sequencing); 20 mM Tris-HCl pH 7.5, 100 mM NaCl, 1.5 mM MgCl2, 0.4 uM protein, 0.1 uM dsDNA library, 30 min, room temperature, amylose pull-down; high values mean tight binding
# Conditions: protein: recombinant; tags: His6-MBP; chain copies: 2; dsDNA, one strand shown
# Method in brief: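 A degenerate double-stranded DNA library, filled in with Klenow, was added at 0.1 µM to 0.4 µM His6-MBP-tagged mouse FoxP3 or FoxP1 fragment lacking the N-terminus, expressed in E. coli. Incubation lasted 30 min at room temperature in Tris pH 7.5 buffer with NaCl and MgCl2, after which complexes were collected on amylose resin, washed three times, digested with proteinase K to free the DNA, barcoded by PCR and sequenced by Illumina. Binding is the pooled-replicate reads-per-million enrichment of pull-down over input.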
row,Sequence,binding signal
1,GATGATTGTTCTCCCAGCTGATGAATTCACATACTCGAGTAAACAAATTTTCCTAATCTTTCTGTTCAAGCGCCATCTAC,0.981 RPM ratio (pull-down/input)
2,GATGATTGTTCTCCCAGCTGATGAATTTGGTCGGTCGAGTAAACAAATTTTCCTAATCTTTCTGTTCAAGCGCCATCTAC,0.852 RPM ratio (pull-down/input)
3,GATGATTGTTCTCCCAGCTGATGAATTGGCTCCCTCGAGTAAACAAATTTTCCTAATCTTTCTGTTCAAGCGCCATCTAC,0.824 RPM ratio (pull-down/input)
4,GATGATTGTTCTCCCAGCTGATGAATTGGGTCCGTCGAGTAAACAAATTTTCCTAATCTTTCTGTTCAAGCGCCATCTAC,0.797 RPM ratio (pull-down/input)
5,GATGATTGTTCTCCCAGCTGATGAATTTTCTAGTTCGAGTAAACAAATTTTCCTAATCTTTCTGTTCAAGCGCCATCTAC,0.895 RPM ratio (pull-down/input)
6,GATGATTGTTCTCCCAGCTGATGAATTTCGCTCCTCGAGTAAACAAATTTTCCTAATCTTTCTGTTCAAGCGCCATCTAC,0.842 RPM ratio (pull-down/input)
7,GATGATTGTTCTCCCAGCTGATGAATTTTAACTCTCGAGTAAACAAATTTTCCTAATCTTTCTGTTCAAGCGCCATCTAC,0.872 RPM ratio (pull-down/input)
8,GATGATTGTTCTCCCAGCTGATGAATTGGTACACTCGAGTAAACAAATTTTCCTAATCTTTCTGTTCAAGCGCCATCTAC,1.15 RPM ratio (pull-down/input)
9,GATGATTGTTCTCCCAGCTGATGAATTAATTGGCTCGAGTAAACAAATTTTCCTAATCTTTCTGTTCAAGCGCCATCTAC,0.936 RPM ratio (pull-down/input)
10,GATGATTGTTCTCCCAGCTGATGAATTCGACAGTTCGAGTAAACAAATTTTCCTAATCTTTCTGTTCAAGCGCCATCTAC,0.853 RPM ratio (pull-down/input)
11,GATGATTGTTCTCCCAGCTGATGAATTGTTTGTATCGAGTAAACAAATTTTCCTAATCTTTCTGTTCAAGCGCCATCTAC,2.64 RPM ratio (pull-down/input)
12,GATGATTGTTCTCCCAGCTGATGAATTCGTATTTTCGAGTAAACAAATTTTCCTAATCTTTCTGTTCAAGCGCCATCTAC,1.67 RPM ratio (pull-down/input)
13,GATGATTGTTCTCCCAGCTGATGAATTAGGCGGTTCGAGTAAACAAATTTTCCTAATCTTTCTGTTCAAGCGCCATCTAC,0.893 RPM ratio (pull-down/input)
14,GATGATTGTTCTCCCAGCTGATGAATTTGGTGGGTCGAGTAAACAAATTTTCCTAATCTTTCTGTTCAAGCGCCATCTAC,0.806 RPM ratio (pull-down/input)
15,GATGATTGTTCTCCCAGCTGATGAATTTTTAGAATCGAGTAAACAAATTTTCCTAATCTTTCTGTTCAAGCGCCATCTAC,1.06 RPM ratio (pull-down/input)
16,GATGATTGTTCTCCCAGCTGATGAATTTGTTTCATCGAGTAAACAAATTTTCCTAATCTTTCTGTTCAAGCGCCATCTAC,1.33 RPM ratio (pull-down/input)
17,GATGATTGTTCTCCCAGCTGATGAATTCTCCAAATCGAGTAAACAAATTTTCCTAATCTTTCTGTTCAAGCGCCATCTAC,0.987 RPM ratio (pull-down/input)
18,GATGATTGTTCTCCCAGCTGATGAATTCAACCACTCGAGTAAACAAATTTTCCTAATCTTTCTGTTCAAGCGCCATCTAC,0.908 RPM ratio (pull-down/input)
19,GATGATTGTTCTCCCAGCTGATGAATTTCTTGCTTCGAGTAAACAAATTTTCCTAATCTTTCTGTTCAAGCGCCATCTAC,0.927 RPM ratio (pull-down/input)
20,GATGATTGTTCTCCCAGCTGATGAATTTATGTAATCGAGTAAACAAATTTTCCTAATCTTTCTGTTCAAGCGCCATCTAC,1.95 RPM ratio (pull-down/input)
21,GATGATTGTTCTCCCAGCTGATGAATTCACCGTGTCGAGTAAACAAATTTTCCTAATCTTTCTGTTCAAGCGCCATCTAC,0.847 RPM ratio (pull-down/input)

row,Sequence,binding signal
1,GATGATTGTTCTCCCAGCTGATGAATTTTCTAAGTCGAGTAAACAAATTTTCCTAATCTTTCTGTTCAAGCGCCATCTAC,0.939 RPM ratio (pull-down/input)
2,GATGATTGTTCTCCCAGCTGATGAATTAAGCAGCTCGAGTAAACAAATTTTCCTAATCTTTCTGTTCAAGCGCCATCTAC,0.868 RPM ratio (pull-down/input)
3,GATGATTGTTCTCCCAGCTGATGAATTTAACTCCTCGAGTAAACAAATTTTCCTAATCTTTCTGTTCAAGCGCCATCTAC,0.748 RPM ratio (pull-down/input)
4,GATGATTGTTCTCCCAGCTGATGAATTACCTTGGTCGAGTAAACAAATTTTCCTAATCTTTCTGTTCAAGCGCCATCTAC,0.861 RPM ratio (pull-down/input)
5,GATGATTGTTCTCCCAGCTGATGAATTATGCCGGTCGAGTAAACAAATTTTCCTAATCTTTCTGTTCAAGCGCCATCTAC,0.919 RPM ratio (pull-down/input)
6,GATGATTGTTCTCCCAGCTGATGAATTTTTTTATTCGAGTAAACAAATTTTCCTAATCTTTCTGTTCAAGCGCCATCTAC,0.953 RPM ratio (pull-down/input)
7,GATGATTGTTCTCCCAGCTGATGAATTTTCTCCATCGAGTAAACAAATTTTCCTAATCTTTCTGTTCAAGCGCCATCTAC,1.08 RPM ratio (pull-down/input)
8,GATGATTGTTCTCCCAGCTGATGAATTTAGGGTATCGAGTAAACAAATTTTCCTAATCTTTCTGTTCAAGCGCCATCTAC,1.07 RPM ratio (pull-down/input)
9,GATGATTGTTCTCCCAGCTGATGAATTCCGAGCCTCGAGTAAACAAATTTTCCTAATCTTTCTGTTCAAGCGCCATCTAC,0.817 RPM ratio (pull-down/input)
10,GATGATTGTTCTCCCAGCTGATGAATTGCCCAACTCGAGTAAACAAATTTTCCTAATCTTTCTGTTCAAGCGCCATCTAC,0.877 RPM ratio (pull-down/input)
11,GATGATTGTTCTCCCAGCTGATGAATTACGACAATCGAGTAAACAAATTTTCCTAATCTTTCTGTTCAAGCGCCATCTAC,1.3 RPM ratio (pull-down/input)
12,GATGATTGTTCTCCCAGCTGATGAATTGCAGACGTCGAGTAAACAAATTTTCCTAATCTTTCTGTTCAAGCGCCATCTAC,1.07 RPM ratio (pull-down/input)
13,GATGATTGTTCTCCCAGCTGATGAATTGAGTTAATCGAGTAAACAAATTTTCCTAATCTTTCTGTTCAAGCGCCATCTAC,0.998 RPM ratio (pull-down/input)
14,GATGATTGTTCTCCCAGCTGATGAATTCGACAAGTCGAGTAAACAAATTTTCCTAATCTTTCTGTTCAAGCGCCATCTAC,0.784 RPM ratio (pull-down/input)
15,GATGATTGTTCTCCCAGCTGATGAATTTGAACTATCGAGTAAACAAATTTTCCTAATCTTTCTGTTCAAGCGCCATCTAC,0.841 RPM ratio (pull-down/input)
16,GATGATTGTTCTCCCAGCTGATGAATTCGGCTGCTCGAGTAAACAAATTTTCCTAATCTTTCTGTTCAAGCGCCATCTAC,0.796 RPM ratio (pull-down/input)
17,GATGATTGTTCTCCCAGCTGATGAATTCTTGGATTCGAGTAAACAAATTTTCCTAATCTTTCTGTTCAAGCGCCATCTAC,0.901 RPM ratio (pull-down/input)
18,GATGATTGTTCTCCCAGCTGATGAATTTAACGAATCGAGTAAACAAATTTTCCTAATCTTTCTGTTCAAGCGCCATCTAC,0.949 RPM ratio (pull-down/input)
19,GATGATTGTTCTCCCAGCTGATGAATTCTATCATTCGAGTAAACAAATTTTCCTAATCTTTCTGTTCAAGCGCCATCTAC,0.959 RPM ratio (pull-down/input)
20,GATGATTGTTCTCCCAGCTGATGAATTTTCATCATCGAGTAAACAAATTTTCCTAATCTTTCTGTTCAAGCGCCATCTAC,1.08 RPM ratio (pull-down/input)
21,GATGATTGTTCTCCCAGCTGATGAATTCTCGATTTCGAGTAAACAAATTTTCCTAATCTTTCTGTTCAAGCGCCATCTAC,0.897 RPM ratio (pull-down/input)

row,Sequence,binding signal
1,GATGATTGTTCTCCCAGCTGATGAATTCTTATAGTCGAGTAAACAAATTTTCCTAATCTTTCTGTTCAAGCGCCATCTAC,0.944 RPM ratio (pull-down/input)
2,GATGATTGTTCTCCCAGCTGATGAATTTCGTACCTCGAGTAAACAAATTTTCCTAATCTTTCTGTTCAAGCGCCATCTAC,0.818 RPM ratio (pull-down/input)
3,GATGATTGTTCTCCCAGCTGATGAATTGGCCGATTCGAGTAAACAAATTTTCCTAATCTTTCTGTTCAAGCGCCATCTAC,0.843 RPM ratio (pull-down/input)
4,GATGATTGTTCTCCCAGCTGATGAATTGCCTATGTCGAGTAAACAAATTTTCCTAATCTTTCTGTTCAAGCGCCATCTAC,0.918 RPM ratio (pull-down/input)
5,GATGATTGTTCTCCCAGCTGATGAATTAGAAGGTTCGAGTAAACAAATTTTCCTAATCTTTCTGTTCAAGCGCCATCTAC,0.838 RPM ratio (pull-down/input)
6,GATGATTGTTCTCCCAGCTGATGAATTGGTGAGCTCGAGTAAACAAATTTTCCTAATCTTTCTGTTCAAGCGCCATCTAC,0.9 RPM ratio (pull-down/input)
7,GATGATTGTTCTCCCAGCTGATGAATTCCAGGGATCGAGTAAACAAATTTTCCTAATCTTTCTGTTCAAGCGCCATCTAC,0.842 RPM ratio (pull-down/input)
8,GATGATTGTTCTCCCAGCTGATGAATTAGCGGACTCGAGTAAACAAATTTTCCTAATCTTTCTGTTCAAGCGCCATCTAC,0.819 RPM ratio (pull-down/input)
9,GATGATTGTTCTCCCAGCTGATGAATTGTCAGTTTCGAGTAAACAAATTTTCCTAATCTTTCTGTTCAAGCGCCATCTAC,1.02 RPM ratio (pull-down/input)
10,GATGATTGTTCTCCCAGCTGATGAATTCCCATGCTCGAGTAAACAAATTTTCCTAATCTTTCTGTTCAAGCGCCATCTAC,0.89 RPM ratio (pull-down/input)
11,GATGATTGTTCTCCCAGCTGATGAATTGGGGTAATCGAGTAAACAAATTTTCCTAATCTTTCTGTTCAAGCGCCATCTAC,1.19 RPM ratio (pull-down/input)
12,GATGATTGTTCTCCCAGCTGATGAATTAGGGCCGTCGAGTAAACAAATTTTCCTAATCTTTCTGTTCAAGCGCCATCTAC,0.779 RPM ratio (pull-down/input)
13,GATGATTGTTCTCCCAGCTGATGAATTCCATGGCTCGAGTAAACAAATTTTCCTAATCTTTCTGTTCAAGCGCCATCTAC,0.788 RPM ratio (pull-down/input)
14,GATGATTGTTCTCCCAGCTGATGAATTTGAATACTCGAGTAAACAAATTTTCCTAATCTTTCTGTTCAAGCGCCATCTAC,0.994 RPM ratio (pull-down/input)
15,GATGATTGTTCTCCCAGCTGATGAATTAGAGACCTCGAGTAAACAAATTTTCCTAATCTTTCTGTTCAAGCGCCATCTAC,0.793 RPM ratio (pull-down/input)
16,GATGATTGTTCTCCCAGCTGATGAATTAGATCCTTCGAGTAAACAAATTTTCCTAATCTTTCTGTTCAAGCGCCATCTAC,0.861 RPM ratio (pull-down/input)
17,GATGATTGTTCTCCCAGCTGATGAATTCGAAGCTTCGAGTAAACAAATTTTCCTAATCTTTCTGTTCAAGCGCCATCTAC,0.79 RPM ratio (pull-down/input)
18,GATGATTGTTCTCCCAGCTGATGAATTGGACCCGTCGAGTAAACAAATTTTCCTAATCTTTCTGTTCAAGCGCCATCTAC,0.824 RPM ratio (pull-down/input)
19,GATGATTGTTCTCCCAGCTGATGAATTGGATATGTCGAGTAAACAAATTTTCCTAATCTTTCTGTTCAAGCGCCATCTAC,0.918 RPM ratio (pull-down/input)
20,GATGATTGTTCTCCCAGCTGATGAATTGATGTCCTCGAGTAAACAAATTTTCCTAATCTTTCTGTTCAAGCGCCATCTAC,1.08 RPM ratio (pull-down/input)
21,GATGATTGTTCTCCCAGCTGATGAATTGAATTTATCGAGTAAACAAATTTTCCTAATCTTTCTGTTCAAGCGCCATCTAC,1.05 RPM ratio (pull-down/input)
